# Reference: the RNAGym collection of RNA variant scans (doi:10.1093/nar/gkz1192)
# Read counts are not given, so values of variants with three or more changes are uncertain.
# B1: CPEB3 Ribozyme (parent)
# chain: UAACAGGGGGCCACAGCAGAAGCGUUCACGUCGCAGCCCCUGUCAGAUUCUGGUGAAUCUGCGAAUUCUGCUGUAUAUCUC
# Variants of: B1
# Experiment: self-cleavage, relative activity (ratio to wild type); higher = more cleavage; in vitro, sequencing
# Procedure, shortened: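 For each CPEB3 ribozyme variant, relative activity is its cleaved/total read fraction divided by the unmutated ribozyme's. Barcoded error-prone PCR libraries were transcribed by T7 RNA polymerase (5 hours, 37°C) and held in DNase I for 15 min before an EDTA stop, with cleavage occurring throughout. Template-switching reverse transcription and Illumina sequencing were used to read the RNAs. A 5-read minimum applied, and results are the mean of three batches.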
row,Variant,self-cleavage
1,CAACAGGGGGCCCCAGCAGAAGCGCUCACGUCGCAGCCCCUGUCAGAUUCUGGUGAAUCUGCGAAUUCUGCUGUAUAUCUC,0.52
2,CAACAGGGGGCCGCAGCAGAAGCGUUCACGUUGCAGCCCCUGUCAGAUUCUGGUGAAUCUGCGAAUUCUGCCGUAUAUCUC,0.04
3,CAACAGGGGGCCACAGCUGAAGCGUUCACGUCGCAGCCUCAGUCAGAUUCUGGUGAAUCUGCGAAUUCCGCUGUAUAUCUC,0.12
4,CAACAGGGGGCCACUGCUGAAGCGUUCACGUCGCAGCCCCUCACAGAUUCUGGUGAAUCUGCGAAUUCUGCUGUAUAUCUC,0.05
5,CAACUGGGUGCCACUCCAGAAGCGUUCACGUCGCAGCCCCUGUCAGAUCCUGGUGAAUCUGCGAAUUCUGCUGUAUAUCUC,0.06
6,CAACAGGGGGCCACAGCGGAAGCGUUCACGUCGCAGCCCCUGUCAGAUUCUGGUGAAUCUGUGAAUUCUGCUGUAUAUCCC,0.18
7,CAACAGGGGGCCACAGCAGGAGCGUUCACGUCGCAGCCCCGGUCAGAUUCUGGUGAAUCUGCGAAUUCUGCUGUAUAUCUC,0.07
8,CAACAGGGGGCCUCAGCAGAAGCGUUCACGUCGCAGCCCCUGUCAGAUUCUGGGGAAUCUGCGAAUUCUGCUGUAUAUCUC,0.64
9,CAACAGGGGGCCACAGCGGAAGCGUUCGCGUCGCAGCCCCUGUCAGAUUCUGGUGAAUCUGCGAAUUCUGCCCUAUAUCUC,0.25
10,CAACAGGGGGCCCCAGCAGAAGCGUUCACGUCGCUGCCCCUGUCAGAUUCUGGUGAAUCUGCGAGUCCAGCUGUAUAUCUC,0.08
11,CAACAGGGGGCCACGGCAGAAGCGUUCGCGUCGCAGCCCCUGUCAGAUUCUGGUGAUCCUGCGAAUUCUGCUGUAUAUCUC,0.05
12,CAACAGGGGGCCACUGCAGAAGCGUUCACGUCGCAGCCCCUGUCAGAUUCCGGUGAAUCUGCGAAUUCUGCUGAAUAUCUC,0.56
13,CAACAGGGGGCCGCAGCAGAAGCGUUCACGUUGCAGCCCCUGUCGGAUUCUGGUGAAUAUGCGAGUUCAGCUGUAUAUCUC,0.13
14,CAACAGGGGGCCACAGCGGAAGCGAUCACGUCGCAGCCCCUGUCAGAUUCUGGCGAAUCCGCGAAUUCUGCUGUAUAUCUC,0.07
15,CAACAGGGGGCCUCAGCAGGAGCGCUCACGUCGCAGCCCCUGUCAGAUUCUGGUGAAUCUGCGAAUUAUGCUGUAUAUCUC,0.05
16,CAACAGGGGGCCACGGCAGAAGCGUUCACGUCGCAGUCCCUGUCUGAUUCUGGUGAAUCUACGAAUUCUGCUGUAUAUCUC,0.04
17,CAACAGGGGGCCACAGCAGGAGCGUUCACUUCGCAGCCCCUGUCAGAUUCUGGUGAAUCUGCGAAUUCUGCUGUAUAUCUC,0.3
18,CAACAGGGGGCCGCAGCAGAAGCGUUCACGCCGCAGCCCCUGUCGGAUUCUGUUGAAUCUGCGUAUUCUGCUGUAUAUUUC,0.05
19,CAACAGGGGGCCUCAGCAGAAGCGUUCACGUCGCAGCCCCAGUCAGAUUCUGGCGAAACUGCGAAUUCUGCUGUAUAUCUC,0.08
20,CAACAGGGGGCCACGGCAGAAGAGUUCACGUCGCAACCCCUGUCAGAUUCUGGUGAAUCUGCGAAUUCUGCUGUAUAUCCC,0.27
21,CAACAGGGGGCCACGGCAGAAGCGUUCACGUCGCAGCCCCUGUCAGAUUCUGGUGAAUCUGCGGAUUCUGCUAUAUAUCUC,1.22
22,CAACAGGGGGCCACAGCGGAAGCGUUCACGUCGCAGCCCCUGUCAGAUUGCUGUGAAUCCGCGAAUUCUGCUGUAUAUCUC,0.32
23,CAACUGGGGGCCACACCAGAAGCGUUCACGUCGCAGCCCCUGUCAGAUUCUGGUGAGUCUGCGAAUUCUGCUGUAUGUCUC,0.12

row,Variant,self-cleavage
1,CAACAGGGGGCCACAGCAGGAGCGUUCACGUCGCAGCCCCUGCCAGAUUCUGGUGAAUCUGCGAAUUCCGCUGUAUACCUC,0.14
2,CAACAGGGGGCCGCAGCAGAAGCGUUCACGUCGCAGCCCCAGUCAGAUCCUGGCGAAUCUGCGAAUUCUGCUGUAUAUCUC,0.05
3,CAACAGGGGGCCACAGCAGGAGCUUUCACGUCGCAGCCCCUGUCAGAUUCUGGUGGAUCUGCGAAUUCUGCUGUAUAUCUC,0.27
4,CAACAGGGGGCCUCAGCAGAAGCAUUCACGUCGCAGCCCCUGACAGAUUCUGGUGAAUCUGCGAAUUCUGCUGUAUAUCUC,0.11
5,CAACUGGGGGCCACAGCAGAAGCGUUCACGUCGCAGCCCCUGUCAGAUUCUGGUGAAUCUGCGAAUUCCGCUGUAUAUCUC,0.57
6,CAACAGGGGGCCACAGCAGGAGCGUUCACGUCGCAGCCCCUGUCGAAUUCUGGUGAAUCUGCGAAUUCUGCUGUAUACCUC,0.38
7,CAACUGGGGGCCACAGCAGAAGCGUUCACGUCGCAGCCCCUGUCAGAUUCAGGUGAAUCUGCGAAUUCUGCUGUAUAUCUC,1.21
8,CAACAGGGGGCCCCAGCAGAAGCGUUCACGUCGCAGCCCCUGUCAGAUUCUGGUGAAUCUGCGAAUUCUGCCAUAUAUCUC,0.88
9,CAACAGGGGGCCACAGCGGAAGCGUUCACGUCGCAGCCCCAGUCAGAUUCUGGUGAAUCUGCGAAUUCUGCUGUAUAUCUC,0.4
10,CAACAGGGGGCCACGGCAGAGGCGUUCACGUCGCAGCCCCUGUCAGACUCUGGUGAAUCUGCGAUUUCUGCUGUAUAUCUC,0.06
11,CAACAGGGGGCCGCAGCAGAAGCGUUCACGUCGCGGCCCCUGUCAGAUUCUGGUGAAUCUGCGAAUUCUGCUGUAUAUCUC,0.51
12,CAACAGGGGGCCACAGCUGAAGCGUUCACGUCACAGCCCCUGUCAGAUUCUGGUGAACCUGCGAAUUCUGCUGUAUAUCUC,0.06
13,CAACAGGGGGCCACAGCGGAAGCGGUCACGUCGCAGCCCCUGUCAGAUUCUGGUGAAUCUGCGAAUUCAGCUGUAUAUCUC,0.28
14,CAACAGGGGGCCACUGCAGAAGCGCUCUCGUCGCAGCCCCUGUCAGAUUCUGGUGAAUCUGCGAAUUCAGCUGUAUAUCUC,0.2
15,CAACAGGGGGCCACAGCAGGAGCGUUCACGUCGCAGCCCCUGUCAGAUUCUGGUGAAUCUGCGAAUUCUGCUGUGUAUCUC,0.83
16,CAACAGGGGGCCGCAGCAGAAGCGUUCACGUCGCAGCCCCUGGCAGAUUGUGGUGAAUCUGCGAAUACUGCUGUAUAUCUC,0.18
17,CAACAGGGGGCCACGGCAGAAGCGUUCACGUCGCAGCCCCUGUCGGAUUCUGCUGAAUCUGCGAAUUCUGCUGUAUAUCUC,0.29
18,CAACAGGGGGCCUCAGCAGAAGCGUUCACGUCGCAGCCCCUGUCAGAUCCUGGUGAAUCUGCGAAUUCUGCUGUAUAUCUC,0.45
19,CAACAGGGGGCCACAGCGGAAGCGUUCACGUCGCAGCCCCUGUCAGAUUCUGGUGAAUCUGCGAAUUCUGCUGUAUAUCCC,0.9
20,CAACAGGGGGCCACAGCGGAAGCGUUCACGUCGCAGCCCCUGUCAGAUUCUGGCGAAUCCGCGAAUUCUGCUGUAUAUCUC,0.12
21,CAACAGGGGGCCACGGCAGAAGCGUUCACGUCGCGGCCCCUGUCAGAUUCUGGUGAAUCUGCGAAUCCUGCCGUAUAUCUC,0.27
22,CAACAGGGGGCCACGGCAGAAGCGUUCACGUCGCAGCCCCUGUCAGAUUCUGGUGAACCUGCGAAUUCUGCUGUAUAUCUU,0.38
23,CAACAGGGGGCCACAGCUGAAGCGUUCACGUCGCAGCCCCUGUCGGGCUCUGGUGAAUCUGCGAAUCCUGCUGUAUAUCUC,0.05

row,Variant,self-cleavage
1,CAACAGGGGGCCACAGCGGAAGCGUCCACGUCGCGGCCCCUGUCAGAUUCUGGUGAAUCUGCAAAUUUUGCCGUAUAUCUC,0.14
2,CAACAGGGGGCCACGGCAGGAGCGUUCACGUAGCAGCCCCUGUCAGAUUCUGGUGAAUCUGCGAAUUCUGCUGUAUGUCCC,0.03
3,CAACAGGGGGCCACAGCAGGAGCGUUCACGUCGCAGCCCCGGUCAGAUUCUGGUGGGUCUGCGAAUUCUGCUGUAUAUCUC,0.2
4,CAACAGGGGGCCACAGCUGAAGCGUUCACGUCGCAGCCCCUGUCGGAUUCUGGUGAAUCUGUGAAUUCUGCUGUAUAUCUC,0.16
5,CAACAGGGGGCCACAGCGGAAGCGUUCACGUCGCAGCCCCUGUCAGAUUCUGGUGAAUCAGCGAAUUCUGCUGUAUAUCUC,0.23
6,CAACAGGGGGCCACAGCAGGAGCGUUCACGUCGCAGCCCCUGGCAGAUACUGGUGAAUCUGCGAAUUCUGCUGUAUAUCUC,0.3
7,CAACAGGGGGCCACAGCGGAAGCGUUCACGUCGCAGCCCCUGUCAGAUUCUGGUGAAUCUGCGAAUUCUGCCGUAUUUCUC,0.29
8,CAACAGGGGGCCACAGCAGGAGCGUUCACGUCGCAGCCCCUGUCAGAUACUGGUGAAUCUGCGAAUUCUGCUGUAUAUCUC,0.29
9,CAACAGGGGGCCACAGCAGGAGCGUUCACGUCGCAGCCCCUGUCAGACCCUGGUGAAUCUGCGAAUUCUGCUGUAUAUCUC,0.35
10,CAACAGGGGGCCUCAGCAGAAGCGUUCACGUCGCAGCACCUGUCAGAUUCUGGUGAAUCUGCGGAUUCUGCUGUAUAUCCC,0.17
11,CAACAGGGGGCCACUGCGGAAGCGUUCACGUCGCAGCCCCUGUCAGAUUCUGGUGAAUCUGCGAAUUCUGCUGUAUAUCUC,0.19
12,CAACAGGGGGCCACAGCUGGAGCGUUCACGUCGCAGCCCCUGUCAGAUUCUGGUGAAUCUGCGAAUUCUGCUUCAUAUCUC,0.33
13,CAACAGGGGGCCACGGCAGAGGGGUUCUCGUCGCAGCCCCUGUCAGAUUCUGGUGAACCUGCGGAUUCUGCUGUAUAUCUC,0.18
14,CAACAGGGGGCCACUGCUGAAGCGUUCGCGUCGCAGCCCCUGUCAGAUUCUGGUGAUUCUGCGAAUCCUGCUGUAUAUCUC,0.12
15,CAACAGGGGGCCACAGCGGAAGCGUUCACGUCGCAGCCCCUGUCGGAUUCUGGUGAAUCUGCGAAUUCUGCUGUAUCUCUC,0.21
16,CAACAGGGGGCCACAGCUGAAGCGUACACGUCGGAGCCCCUGUCAGAUUCUGGUGAAUCUGCGAAUUCUGCCGUAUAUCUC,0.27
17,CAACAGGGGGCCUCAGCAGGAGCGUUCACGUCGCAGCCCCUGUCAGAUUCUGGUGAAUCGGCGAAUUCUGCUGUAUAUCCC,0.14
18,CAACAGGGGGCCACAGCAGGAGCGAUCACGUCGCAGCCCCUGUCAGAUUCUGGUGAAUCUGCGAAUUCUGCUGUAUAUCUC,0.26
19,CAACAGGGGGCCGCAGCAGAAGCGUUCACGUCGCAGCCCCAGUCAGAUUCUGGUGAAUCUGCGAAUUCUGCUGUGUAUCUC,0.27
20,CAACAGGGGGCCUCAGCAGAAGCGUUCACGUCGCAGCCCCUGUCAGAUUCUGGUGAAUCUGCGGAUUCUGCUGUAUAUCCC,0.95
21,CAACAGGGGGCCACAGCGGAAGCGUUCACGUCGCAGCCCCUGUCAGAUUCUGGUGAAUCUGCGUAUUCUGCUGUGUAUCUC,0.15
22,CAACAGGGGGCCACAGCAGGAGCGUUCACGUCGCAGCCCAUGUCAGAUUCUGGUGAAUCUGCGGAUUCUGCUGUAUAUCUC,0.25
